# Source: the supplement of paper PMC11417369
# ± gives the standard deviation of the averaged measurements. This is one part of the list.
# Test system: PfAP2-EXP AP2 domain (GST-tagged)
# Assay: gcPBM binding intensity (ln(normalized median fluorescence intensity)); higher = stronger DNA binding
# Outline: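 Alexa488 anti-GST antibody, scanned at 488 nm, detected GST-tagged P. falciparum DNA-binding domains that had been expressed in E. coli and incubated for 1 h on an Agilent 4 × 180k array. The array carried primer-extended double-stranded 36-bp intergenic genomic probes and negative controls. Binding intensity is the highest Masliner-normalised natural-log median intensity across replicate spots of either orientation of each probe.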
row,Sequence,gcPBM binding intensity (ln)
1,TGAATACATAAATATAGTACATATATATATATATTA [XGTACX_site8756],8.23 ± 0.16
2,AGATCATAATATTATACACACATTATGTATATGTAA [CACACA_site1490],8.33 ± 0.47
3,TATAATATTATTTGAAGTACAAACATAAAAGAATTA [XGTACX_site3161],8.57 ± 0.38
4,TACAAAAAATTATGGAGTACATATATAATATACAAT [XGTACX_site1004],8.5 ± 0.33
5,GAACCATTTTTTGGTATACACACGTAATTATAGAAT [CACACA_site1851],8.65 ± 0.42
6,CACTTTTTTTAAATGTGTACGTATATGAAAATATCA [XGTACX_site4854],8.33 ± 0.33
7,TAAAAAAATAAAATTACACACATATATAGATATATA [CACACA_site7273],8.16 ± 0.29
8,ATATACATATCATGTAGTACAATTTTTTTACTTTTT [XGTACX_site7988],8.3 ± 0.3
9,TAAACAAAAAGGAAGAGTACTTGTAAAATTTGTAAA [XGTACX_site3003],8.86 ± 0.5
10,AATTGGGAACTGTAATGTACATATATTGAAAGTATA [XGTACX_site7081],8.87 ± 0.35
11,ACAAAAAAAAATATGTTAACTATATATATATATATA [CACACA_negctrl_site346],10.1 ± 0.43
12,TATTTATTTGTACATATACACACTTAAATATGTTTA [CACACA_site3902],8.64 ± 0.38
13,TTATATTTCTTGAAGGGTACATACCATTATTTTTAA [XGTACX_site1159],8.37 ± 0.3
14,ATACATATATTAGGATGTACGTTTATTTTAGTTATT [XGTACX_site7169],8.41 ± 0.15
15,AGAAAACTCGCTTTTCTAAATCTCAAAAAAAAAAAA [XGTACX_negctrl_site94],8.21 ± 0.38
16,ATATATTTATATATTACACACAATATTGGAGACATA [CACACA_site931],8.81 ± 0.42
17,TATATATATATAGATGCATGCAATTACATATAACAA [TGCATGCA_site118],10.2 ± 0.23
18,TTGTGTACATATTAAGTGCATATATATATATATATA,10.4 ± 0.33
19,ATTTTCTATATCTTTCAACACACAAATTTTTTTTTC [CACACA_site7918],8.69 ± 0.6
20,TACATCAAACAAGTATGTACATATATATATATATAT [XGTACX_site7415],10.2 ± 0.49
21,GCATATGATGAGCATATAATCATAAGAAAAAAAAAA [CACACA_negctrl_site701],8.35 ± 0.57
22,TATGTAATAATAAACGGTACACTATATTGTATGAAA [XGTACX_site4648],8.71 ± 0.36
23,AATAAATAGTAGTAGGTGCTACTATATTATATATAT [GTGCAC_site9452],8.63 ± 0.16

row,Sequence,gcPBM binding intensity (ln)
1,ATTATGAATTTTAATTGTACATTATTATAGAATGTA [XGTACX_site619],8.36 ± 0.38
2,AATAATTCTTAAAGGTGTACAATATGTATATAAGAA [XGTACX_site595],8.9 ± 0.33
3,AGTTATTTTTATATTTCACACACATATACTTTTACA [CACACA_site9357],8.88 ± 0.4
4,AAATTTTTTATTAGTAGTACGCATAAATATATGTAT [XGTACX_site1934],8.6 ± 0.37
5,AAAAATTCTTCCCAAGCATGCGCGCGTAAAATATTT [TGCATGCA_site77],9.4 ± 0.071
6,AAAAAAATAAGACACACACACAAAAAAATAAAAATA [CACACA_site6357],8.65 ± 0.57
7,AAAAAAAAAAGAAAAGGTACACAGAATATATATATA [XGTACX_site6914],9.84 ± 0.11
8,CAGTAGTTTTTATGGGTGCAAAACATATATATAACA,9.17 ± 0.042
9,ATATATATATCAAAATGTACAAAAATAGAATTTAAA [XGTACX_site8292],9 ± 0.23
10,ATCTTTTTACTTAATACACACACACCCAAAAAAAAA [CACACA_site8221],8.84 ± 0.45
11,AAACGGCTATTAAAATGTACATGTAAATATATTAAA [XGTACX_site918],8.84 ± 0.46
12,AATACATATGGGTGTACACATTATATATATATATAT [CACACA_site4601],10.1 ± 0.24
13,CCTTTCCTAGCACATGCACACAAAAAAAAAAAAAAA [CACACA_site8396],8.57 ± 0.071
14,TACACCCACCAACACACACACACACTAATAAAAAAA [CACACA_site8060],8.57 ± 0.43
15,AAAATTAAAATATCACGTACGAAGAAAAAATTAAGA [XGTACX_site6437],8.85 ± 0.47
16,GAGGGTATAATAAAAGCACACACAAAGATATAAATA [CACACA_site9087],8.96 ± 0.49
17,CATGAATATTTATACATGCACACTAAAATAAAGAAT [CACACA_site2412],9.06 ± 0.16
18,GAAAATATTACATACACGCACACATTAATATATTTA [CACACA_site2604],8.65 ± 0.33
19,AAAAAATGCGACATGTGTACACATATATATATATAT [XGTACX_site1679],10.4 ± 0.11
20,TATATATATATATACACACACACACCCCAAAGCGTA [CACACA_site64],10.4 ± 0.15
21,ACATTTTGTAAAGAATGTACATATATATATATATTC [XGTACX_site8004],8.54 ± 0.33
22,CACTAATAGTGGATTACACACATATATCTGTATTTA [CACACA_site5403],8.38 ± 0.35
23,TGATTAATAATTTTCTTCATACATTAAACATCTTTT [TGCATGCA_negctrl_site342],8.39 ± 0.41

row,Sequence,gcPBM binding intensity (ln)
1,TTTTTTTTTTCATTAACACACATAAATATATATATA [CACACA_site5759],9.41 ± 0.042
2,GAGAAAAATAAATACACACACATAAATAAATACATA [CACACA_site5102],8.75 ± 0.42
3,TATGTATATTTTAATTGTACGTGTATGGTTGTAAAT [XGTACX_site8738],8.79 ± 0.38
4,TTAATGTTATATGTGTGTACATATAAGTTTAGTAAA [XGTACX_site4651],8.49 ± 0.14
5,TATTTTAATGAATTCACACATATAATTTATTTTATA [CACACA_site4538],8.3 ± 0.45
6,ATATTTAAAAAATGATGTACAAAAATGTAGTCACAC [XGTACX_site6208],8.57 ± 0.28
7,GAAATTAAATGACATACACACTATATTATAGATTTT [CACACA_site7468],8.35 ± 0.47
8,TTTTTTTTTTTTTTCTGTACAAATTAAATCTACATA [XGTACX_site8285],8.36 ± 0.8
9,GACATAAAATTCAAAGTGCATAAATAAAATAAACCC,9.37 ± 0.47
10,TTTAATTTGATAGACACATGCACACGTGCAATACTT [TGCATGCA_site777],8.78 ± 0.085
11,ATATATATATATAAATGTACAGATATATTTTTTATT [XGTACX_site5445],10.21 ± 0.078
12,TACTAAAAAATATAAACACACATATATTTTACATAT [CACACA_site2042],8.22 ± 0.45
13,AATATATATTAATAAAGTACAGGAAATATTTTTACC [XGTACX_site7052],8.91 ± 0.36
14,AAAATACATAGACACACACACACACGGATATAAATA [CACACA_site7643],8.83 ± 0.58
15,ATATAAAACTAATTTCTTTTTCTCCTTTTATTTTGT [CACACA_negctrl_site1251],8.41 ± 0.4
16,ATAGTATCTGGTAGCTGTACGAGTCGTAGAGTGTAA [XGTACX_site4936],8.97 ± 0.49
17,TTTGTAAGAAATAAATGTACAAAAATTAATTTTTAT [XGTACX_site8983],8.45 ± 0.45
18,CTAATTAATGGGTACATACACACATATATACATACA [CACACA_site743],8.47 ± 0.29
19,ATATTAAAATTAAACGCATGCATATATTATAAAAGA [TGCATGCA_site231],9.51 ± 0.31
20,TTTTTATCAAATAAATGTACACATATTAAATGAAAT [XGTACX_site555],8.62 ± 0.19
21,TTCTGTATAACACAAATTTTTTTTTATTCACTCTGT [TGCATGCA_negctrl_site410],8.46 ± 0.35
22,AACACTTCATACACGTGTACAAATATAATATAGACA [XGTACX_site5671],8.84 ± 0.46
23,AAAATATTCACGTGTACATATATATATATATATTAT [TGCATGCA_negctrl_site192],8.97 ± 0.42

row,Sequence,gcPBM binding intensity (ln)
1,GGAAATAATATTATTACACACCAAAATGTATAAAAA [CACACA_site4036],8.45 ± 0.27
2,AAAAAAAAAAAAAACACACACACACGCATACAAAAT [CACACA_site6794],8.85 ± 0.55
3,ATTAATTATATAATATGTACATATTACAAATATATA [XGTACX_site1478],8.53 ± 0.33
4,ATATTTTTCTTAAGTACACACTAAATAGAAACTAAA [CACACA_site4191],8.48 ± 0.3
5,TTATATCTTATAAAATGTACATAAAATATATAATAT [XGTACX_site7647],8.52 ± 0.26
6,AATAATATAACAGAACAAAACTAAATATACACATAT [TGCATGCA_negctrl_site31],8.97 ± 0.5
7,TATTTCATAATAAATTGTACGCGTAGAAAACCATGA [XGTACX_site7506],9.29 ± 0.59
8,ATAATTACATAGATTGGTACACATTTTTGATTGTAT [XGTACX_site3802],8.54 ± 0.31
9,GTACAAATGATTAATCCTTTACTTATATATATATAT [XGTACX_negctrl_site138],10.1 ± 0.18
10,TTAAAAATGTGTGTGCGTACATAATATTTCGAAAAA [XGTACX_site8197],8.79 ± 0.36
11,CATTTTTTTTTATAAATACACACGTACGGGTGCATA [CACACA_site1569],8.39 ± 0.34
12,TTCTTAAAAAAAAATAAAATAAAAAAAAAAATAAAA [CACACA_negctrl_site99],8.17 ± 0.47
13,GAACATTTACGCCCCACACACCTACCAACAAAAAAA [CACACA_site7746],8.88 ± 0.49
14,TTCTGGCAAAATAACACACACATATATTTTATATAC [CACACA_site3242],9.05 ± 0.22
15,TTTTTCATATGACACACACACAAAAATAATGTGGAA [CACACA_site7692],8.48 ± 0.43
16,AAATGAACACGAAAGGAAAAAAAAATATATATATAT [CACACA_negctrl_site267],9.96 ± 0.4
17,TCATTTTATTATTCTACACACTTATCTATAATTATA [CACACA_site34],8.88 ± 0.29
18,TATAAAAAATTCTTCCTTATTTTATGATATATATAT [TGCATGCA_negctrl_site57],9.06 ± 0.071
19,ATTTGCAGTATTTCGGAACACACAAACATAAATATG [CACACA_site8726],8.49 ± 0.35
20,AAATATATTTCACGCACACACACCCCAAATAAATTT [CACACA_site3820],9.05 ± 0.52
